Experimental data: PubChem BioAssay AID1460 (National Center for Advancing Translational Sciences (NCATS), 2008)
Screen size: about 270,000 compounds; about 5,800 (2.1%) were called active. Inconclusive results, whose numbers are uncertain, are shown with a selection of clear calls. Calls come from the whole dose curve; as a rule, active = well fitted inhibition curve with a large enough effect; inconclusive = small, poorly fitted or top-dose-only effect; inactive = flat fitted curve, though single readings scatter. Where the call is inconclusive, the potency comes from a doubtful curve fit.

What follows are molecules tested against Microtubule-associated protein tau (Homo sapiens) (UniProt P10636) (assay: qHTS for Inhibitors of Tau Fibril Formation, Thioflavin T Binding). Details: recombinant tau K18 P301L (four-repeat tau fragment), heparin-induced fibrillization, ThT fluorescence; series mostly up to 57.4 µM; activity, negative = inhibition: at the top concentration.
Chain of UniProt P10636 (P10636 whole entry, looked up, the tested form may be a part): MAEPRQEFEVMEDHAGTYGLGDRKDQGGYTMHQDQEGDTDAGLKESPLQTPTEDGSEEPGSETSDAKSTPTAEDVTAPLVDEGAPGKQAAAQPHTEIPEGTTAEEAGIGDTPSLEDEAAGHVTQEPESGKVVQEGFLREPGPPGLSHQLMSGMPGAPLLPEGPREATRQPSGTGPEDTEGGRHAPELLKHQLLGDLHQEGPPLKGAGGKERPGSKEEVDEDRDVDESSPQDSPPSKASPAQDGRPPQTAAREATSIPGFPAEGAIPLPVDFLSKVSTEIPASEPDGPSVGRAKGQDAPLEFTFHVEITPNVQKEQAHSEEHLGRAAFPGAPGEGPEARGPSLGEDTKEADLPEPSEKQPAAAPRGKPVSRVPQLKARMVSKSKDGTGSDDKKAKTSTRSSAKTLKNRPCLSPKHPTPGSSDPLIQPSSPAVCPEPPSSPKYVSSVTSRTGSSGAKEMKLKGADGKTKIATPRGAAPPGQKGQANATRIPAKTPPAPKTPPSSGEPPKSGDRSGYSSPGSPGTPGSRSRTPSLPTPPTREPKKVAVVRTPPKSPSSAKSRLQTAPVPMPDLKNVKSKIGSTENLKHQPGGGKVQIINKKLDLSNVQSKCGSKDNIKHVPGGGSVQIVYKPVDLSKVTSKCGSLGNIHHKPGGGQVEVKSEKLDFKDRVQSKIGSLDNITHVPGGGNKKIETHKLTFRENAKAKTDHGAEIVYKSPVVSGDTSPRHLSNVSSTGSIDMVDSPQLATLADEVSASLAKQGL
In short: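 K18 P301L tau (15 uM + 0.24 uM Alexa 594-tagged), heparin 20 uM, NaOAc pH 7, 6 h 37 C; ThT 30 uM, 1 h RT, ex 450/em 510 nm.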
% is set by controls: 0 for no effect and ±100 for the full control effect; potency is the fitted concentration of half-maximal effect; tags give direction and shape of the fitted curve.
Note: nearly all actives have a fitted effect of over 55% in size.

Compound | Potency | activity, negative = inhibition
CCOC(=O)/C(=N\Nc1ccccc1Cl)N1CCN(c2ccccc2OC)CC1 | inconclusive: 31.6 µM [inhibitor, single point] | –
CC(C)(C)N1C(=O)[C@H]2[C@H]3[C@H](O)[C@H](O)C/C(=N/OC[C@@H](O)COCc4ccco4)[C@H]3CC[C@@H]2C1=O | – | inactive: -5.54% [at 11.5 µM]
S=c1[nH]nc(CN2CCCC2)n1Cc1ccccc1 | – | inactive: -2.97%
CCc1ccc(OCC(=O)NC(=S)Nc2ccc(C(C)=O)cc2)c(Br)c1 | inconclusive: 1 µM [inhibitor, full curve] | –
Cc1oc(-c2cc(F)ccc2F)nc1CN1CCN(C)C(=O)[C@@H]1C | – | inactive: -2.95%
CCSc1nc(N2CCOCC2)c2c(c1C#N)CC(C)(C)N(C)C2 | inconclusive: 35.5 µM [inhibitor, single point] | –
CS(=O)(=O)c1ncc(Cl)c(C(=O)N(Cc2ccc(Cl)cc2)Cc2ccco2)n1 | inconclusive: 11.2 µM [inhibitor, partial curve] | –
Cc1cccc(OCC(=O)Nc2nnc(S(=O)(=O)N3CCCCCC3)s2)c1 | inconclusive: 2.24 µM [inhibitor, full curve] | –
Cc1cc(C(=O)COC(=O)c2ccc(N)c([N+](=O)[O-])c2)c(C)n1-c1ccc2c(c1)OCO2 | inconclusive: 7.08 µM [inhibitor, partial curve] | –
O=C(/C=C/c1ccco1)N1CCCC(c2ccccc2)C1 (stereo not given) | inconclusive: 15.8 µM [inhibitor, partial curve] | –
NC(=O)c1sc(=S)n2c1[nH]c(=O)c1sccc12 | active: 11.2 µM | –
COc1ccc(/C=C/C(=O)c2c(O)c(OC)c3occc3c2OC)cc1 | active: 4.47 µM | –
Clc1cc(Cl)c(OCc2nc(-c3ccccn3)no2)cc1Cl | inconclusive: 3.98 µM [inhibitor, full curve, poor fit] | –
O=C(c1ccccc1F)N1CCN(c2ccc([N+](=O)[O-])c(NCC3CCCO3)c2)CC1 (stereo not given) | inconclusive: 15.8 µM [inhibitor, partial curve] | –
COc1cccc2cc(-c3nnc(-c4ccccc4)o3)c(=O)oc12 | inconclusive: 12.6 µM [inhibitor, partial curve] | –
COc1ccccc1CN1C[C@@H]2C[C@@H](c3ccc4nsnc4c3)N3CCC[C@@]23C1=O | inconclusive: 17.8 µM [inhibitor, single point] | –
O=C(CCCCCNc1nc(=S)[nH]c2ccccc12)N1CCN(c2ccccn2)CC1 | inconclusive: 0.891 µM [inhibitor, full curve] | –
CCC(=O)N1CCc2cc(CNS(=O)(=O)c3ccccc3F)ccc21 | – | inactive: -1.05%
COC(=O)Cc1ccc(NC(=S)NNC(=O)c2ccccc2Br)cc1 | inconclusive: 28.2 µM [inhibitor, single point] | –
COCCSc1ccccc1C(=O)N1CCN(Cc2ccccc2)CC1 | – | inactive: -9.82%
COc1cc2c(cc1OC)-c1cc(=Nc3c(C)cc(C)cc3C)n(C)c(=O)n1CC2 | inconclusive: 12.6 µM [inhibitor, partial curve] | –
O=C(c1cc2ccccc2oc1=O)N(Cc1ccccc1)Cc1ccc2c(c1)OCO2 | inconclusive: 8.91 µM [inhibitor, full curve] | –

Compound | Potency | activity, negative = inhibition
CC1=C(C(=O)O)N2C(=O)C(NC(=O)C(N)C3=CCC=CC3)C2SC1 (stereo not given) | inconclusive: 17.8 µM [inhibitor, partial curve] | –
Cc1c(N=C2NC(=O)/C(=C/c3ccc(O)cc3)S2)c(=O)n(-c2ccccc2)n1C | inconclusive: 14.1 µM [inhibitor, single point] | –
O=C(N/N=C\c1ccc(-c2ccc([N+](=O)[O-])cc2)o1)c1ccc2c(c1)OCO2 | active: 0.891 µM | –
O=C(/C=C/Nc1ccc([N+](=O)[O-])cc1Br)c1cccc2ccccc12 | inconclusive: 2 µM [inhibitor, full curve] | –
COc1cc2c(cc1NC(=O)/C=C/c1ccc([N+](=O)[O-])cc1)oc1ccccc12 | inconclusive: 1.78 µM [inhibitor, full curve] | –
CC(C)C1=Nc2cccc3cccc(c23)N1 | inconclusive: 22.4 µM [inhibitor, partial curve] | –
COc1cccc(/C=C/c2ccncc2)c1OC | inconclusive: 25.1 µM [inhibitor, partial curve, poor fit] | –
Cc1oc(-c2ccccc2Cl)nc1CS(=O)CC(=O)N1CCN(c2cccc(C(F)(F)F)c2)CC1 (stereo not given) | inconclusive: 39.8 µM [inhibitor, single point] | –
Clc1ccc(-n2nnnc2-c2cnc3ccccc3c2-c2ccccc2)cc1 | – | inactive: -5.36%
CCOc1ccc(Nc2nc(Cc3nnc(SCC(=O)N(CC)CC)n3C)cs2)cc1 | inconclusive: 15.8 µM [inhibitor, partial curve] | –
O=c1[nH]c(SCc2ccccc2)nc2c1CCCC2 | – | inactive: 6.56%
O=C(O)c1ccc(COc2ccc3c4c(c(=O)oc3c2)CCC4)o1 | inconclusive: 11.2 µM [inhibitor, partial curve, poor fit] | –
Nc1ncnc2nc(SCCOc3ccc(Cl)cc3)[nH]c12 | – | inactive: -17.5%
Cc1sc(-c2ccncc2)nc1OC(=O)c1ccc(F)cc1F | inconclusive: 22.4 µM [inhibitor, partial curve] | –
CCOC(=O)CC(=O)CSc1nc2c(cc1C#N)CCC2 | inconclusive: 15.8 µM [inhibitor, partial curve] | –
CC(C)Cn1c(N)c(C(=O)NCC2CCCO2)c2nc3ccccc3nc21 (stereo not given) | inconclusive: 28.2 µM [inhibitor, partial curve] | –
Clc1ccc(N2COC3c4cccc5cccc(c45)C32)cc1 (stereo not given) | inconclusive: 28.2 µM [inhibitor, partial curve] | –
O=c1c2ccccc2sn1-c1cc(S(=O)(=O)N2CCOCC2)ccc1N1CCCC1 | active: 25.1 µM | –
O=C(/C=C/c1ccc(F)cc1)NCc1ccco1 | – | inactive: 10.6%
CCOc1ccc(CCNC(=O)C(CC)n2nc(C)c3c(C)n(-c4ccccc4)nc3c2=O)cc1 (stereo not given) | – | inactive: -2.92%
CCCCSCCCNC(=O)C1CCN(Cc2nc(-c3ccc(CC)cc3)oc2C)CC1 | inconclusive: 44.7 µM [inhibitor, single point] | –
Cc1cc(-c2[nH]nc3c2C(c2cccc(O)c2)C(C#N)=C(N)O3)c(C)s1 (stereo not given) | inconclusive: 28.2 µM [inhibitor, partial curve] | –

Compound | Potency | activity, negative = inhibition
CCn1c(O)c(N=NC(=O)c2cccc(S(=O)(=O)N3CCCCC3)c2)c2ccccc21 | inconclusive: 14.1 µM [inhibitor, partial curve] | –
Cc1cc(C)nc(SCc2cc(=O)c(OC(=O)c3cc([N+](=O)[O-])ccc3Cl)co2)n1 | inconclusive: 28.2 µM [inhibitor, partial curve] | –
O=C(CCl)Nc1ccc(-c2ccccc2)cc1 | – | inactive: -6.83%
COc1ccc(OCC(=O)Nc2ccc(NC(=O)c3cccs3)c(OC)c2)cc1 | inconclusive: 3.98 µM [inhibitor, full curve] | –
COc1ccc(Nc2ccc(C(N)=O)cc2[N+](=O)[O-])cc1 | inconclusive: 25.1 µM [inhibitor, partial curve] | –
CC(C)NC1=C(Cl)C(=O)c2ccccc2C1=O | active: 25.1 µM | –
O=C(Nc1ccc([N+](=O)[O-])c(NC(=O)C2CCCO2)c1)C1CCCO1 (stereo not given) | inconclusive: 39.8 µM [inhibitor, single point] | –
COc1ccc(C2C(C(=O)Nc3ccccc3)=C(C)Nc3nc(-c4ccccc4)nn32)c(OC)c1 (stereo not given) | inconclusive: 1.41 µM [inhibitor, partial curve] | –
CC(C)C(=O)Nc1cccc(C(=O)Nc2cc([N+](=O)[O-])ccc2Cl)c1 | inconclusive: 14.1 µM [inhibitor, single point] | –
CC(C)Cn1c(-c2ccncc2)n[nH]c1=S | – | inactive: 0.771%
COC(=O)c1ccc(/C=N/Nc2nc(-c3ccccc3)cs2)cc1 | inconclusive: 0.891 µM [inhibitor, full curve] | –
C#CCOCCOCCOCCNc1nc(N2CCN(C(=O)[C@H](Cc3cc4ccccc4[nH]3)n3cc([C@@H](N)C(C)CC)nn3)CC2)nc(N2CCN(C(=O)[C@H](CCCCN)n3cc([C@@H](N)CO)nn3)CC2)n1 (stereo not given in full) | inconclusive: 17.8 µM [inhibitor, single point] | –
CC1=CC(=O)C2C(C)(C)CCC[C@@]2(C)[C@@]1(O)CCc1ccoc1 (stereo not given in full) | inconclusive: 35.5 µM [inhibitor, single point] | –
CC1=CC(C)(C)N=C(Nc2nc(C)c3cc(C)cc(C)c3n2)N1 | inconclusive: 15.8 µM [inhibitor, partial curve] | –
CC(=O)Nc1ccc(-c2csc(NCc3ccco3)n2)cc1 | inconclusive: 15.8 µM [inhibitor, partial curve] | –
COC(=O)/C=C\c1cc(O)ccc1O | inconclusive: 11.2 µM [inhibitor, partial curve] | –
Cc1ccccc1NC(=O)Nc1csc2c1CCCC2 | inconclusive: 2.24 µM [inhibitor, full curve] | –
COc1ccc(C(=O)c2sc(NC(C)C)nc2N)cc1OC | inconclusive: 22.4 µM [inhibitor, single point] | –
CCOC(=O)C1CCN(C(=O)CSc2c3c(nc4ccccc24)CCC3)CC1 | inconclusive: 12.6 µM [inhibitor, partial curve] | –
CCc1ccc(OCC(=O)Nc2ccc(S(=O)(=O)Nc3onc(C)c3C)cc2)cc1 | inconclusive: 15.8 µM [inhibitor, single point] | –
COc1ccc(/C=C/C(=O)OCC(=O)c2ccc3c(c2)NC(=O)CO3)c(OC)c1 | inconclusive: 14.1 µM [inhibitor, partial curve] | –
